Measured values published in article PMC5836133.
Some of the results follow. At the low end of the ranking the order means little.

tested on: T1, GST-NbGlk1(82-244); assay: protein-binding microarray; conditions: NbGlk1 is a Golden2-like transcription factor of Nicotiana benthamiana; high values mean tight binding; most listed sequences are background and not binding sites; double strand, one strand shown;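 also: rank-based score ranging −0.5 to +0.5 with E above 0.45 taken as significant binding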
T1 sequence: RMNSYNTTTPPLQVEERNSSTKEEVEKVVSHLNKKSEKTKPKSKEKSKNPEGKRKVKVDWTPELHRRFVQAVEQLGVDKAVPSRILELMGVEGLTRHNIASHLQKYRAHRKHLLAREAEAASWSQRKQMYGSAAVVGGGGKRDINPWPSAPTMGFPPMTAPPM

Sequence	binding signal [E-score]
CAACCGCA	-0.0718
AAACGACC	-0.218
AGTATCTA	0.305
ATCGTCCA	0.0817
ATGAGTTC	-0.0817
AAATCTAT	0.419
ATGTCTGC	-0.111
CACGAGAG	-0.112
AGGTCTCA	-0.308
ACCAGCGC	-0.232
AGGGCTAT	-0.113
AGCTAGAG	-0.226
ACAACCTA	-0.187
ACGGGCCC	-0.263
ACGGCGAC	-0.181
AGTCTCAA	0.0516
AAAACCCC	-0.262
ACACGAGT	-0.0708
AACATCAA	-0.0122
AGACTACA	-0.199
AAAAATAG	-0.0519
CAACATGG	-0.0683
ACTTCTAA	0.063
ACCCGGGT	-0.246
ATATTTAC	0.251

Sequence	binding signal [E-score]
ATCTGAAA	0.284
ACATTGAG	-0.000637
AGCAAGTG	-0.0454
ATAGGGTC	-0.188
AACTAATC	-0.0806
ACACGATC	0.307
ACACGTTG	-0.214
ACTTCTCA	0.023
ACGGATGG	-0.115
AACCGTCA	-0.177
ACCTTTTG	-0.0927
CAACTAGG	-0.025
AGACCACT	-0.173
ATTCAGGG	0.0522
AAAAGATT	0.388
AGGTAACC	-0.16
AAAATAGA	0.152
AGACGAGC	-0.242
ACAGCCGG	-0.248
ACTGCCAT	-0.163
CAATAAAA	0.101
ATATCGCG	0.415
ACTGGCGC	-0.185
AGCTGATC	-0.0207
ACAATTTC	0.188

Sequence	binding signal [E-score]
AGCTCTAC	-0.136
ACGTAAGC	-0.031
AGGGGCAG	-0.208
ACCGCCGC	-0.216
AACCCACC	-0.0964
AGGTAATA	0.0321
ATTTGATA	0.229
AAGCAAAC	-0.0763
AGGATGCG	-0.0637
ACTCTGCA	-0.141
ACGTTTGA	0.0239
AAACACCA	-0.14
ATAAGGCA	0.008
AGTAGACG	-0.135
CACATCAC	-0.0541
AGCGTTAT	0.0607
ATTATGGG	-0.0105
AATTAAAA	0.101
CACGCACC	-0.129
ATTTGCTA	0.166
CAAGCCAC	-0.244
AGTAAGCG	0.0463
AGTGTTTA	-0.00854
ATATGTTC	0.119
AATGGTTG	-0.0741

Sequence	binding signal [E-score]
ACGATAGT	0.0795
CAATAACC	-0.0686
ACAATTCA	0.0542
ACTCACTA	0.0221
AAAGCACA	0.0176
AGTTACAA	0.0865
AGTTAAAG	-0.00654
CAGCGCCG	-0.221
ATACCGTG	-0.0694
ATTGCGAA	0.312
CAAACCGG	-0.0496
AGATTCTC	0.49
CAGACTCC	-0.278
AAGATGGA	-0.114
ATGCATAA	0.131
CAACGACG	-0.0596
AATACATG	0.0338
ATGGCGAG	-0.0265
AAGTAGAC	-0.115
AACGGATC	0.25
ATCGTCAA	0.231
ACAATGAC	-0.16
AGGCCGAG	-0.0882
CACTAGGA	0.0141
AATTCCTA	0.167

Sequence	binding signal [E-score]
AGCATCGG	-0.0878
CAATTGCG	0.125
ATTAACTA	-0.00616
ACACACGT	-0.131
AGTCACCC	-0.0747
AGCGGAAC	-0.118
ATGGCCCA	-0.241
CAGCCTCG	-0.213
CAAAATTC	0.193
ACATTGTA	-0.0769
ACCGCTGC	-0.212
AGTTTAGA	0.165
AGTCGGTC	-0.223
AGCACCCG	-0.294
AGAAGGGG	-0.191
ACGCACCT	-0.167
AGTTATAA	0.0355
CAATACAC	0.0913
AAGAGCTC	-0.362
AAATGTGG	0.0652
AGTACTAT	-0.00957
ATCTTTAA	0.259
ATACCGAG	0.0757
AATCTTTG	0.378
ATGTGGCA	-0.0851

Sequence	binding signal [E-score]
AGCTGGCC	-0.346
CAAGCTCG	-0.152
AGAAATAA	0.185
AGTGATGC	0.0715
ACTTGTCT	-0.0907
CAGCAAGG	-0.077
ATTCGACG	0.153
ACATTCGG	-0.0432
CAGAACAG	-0.115
ATAAGCTA	-0.0196
CACAAGTA	0.0812
ACTATCGG	0.0387
CAAACCCC	-0.307
ACTCCCAC	-0.131
ACTGTTCG	-0.0298
ACATGGGA	0.0526
AAGATGCA	-0.103
CAACCGTG	-0.0713
ACGCGGAG	-0.206
AGAGCCTG	-0.174
AGTTGCGG	-0.036
AGAAGCCA	-0.192
AACGAGAC	-0.0281
CAAAAGAA	0.00621
AACAATTG	0.0413

Sequence	binding signal [E-score]
ATAGTTAC	-0.0488
CAGCATAA	-0.0585
AACCTAGC	-0.146
ATGCGGAG	-0.12
ACAGCCCT	-0.204
ATACCAGC	-0.0161
ACAAAGGC	-0.309
ACCTGTCG	-0.124
ACCAAGCG	-0.245
AGGGGGGC	-0.266
ATTGTATG	0.15
AATCCTTG	0.336
ATCGACCC	-0.0445
CAGAGCCG	-0.271
AGAGGTGA	-0.113
ATGATTGA	-0.0576
ATTAGGCC	-0.0856
AAGATCCC	0.333
AAAACGCA	0.0376
AGCGGGAG	-0.173
CAACTGTC	-0.166
CAAATATC	0.375
